{
  "source": "PubChem BioAssay AID1345082",
  "about": "(National Center for Advancing Translational Sciences (NCATS), 2018)",
  "note": "About 4,000 (4.3%) of roughly 94,000 compounds were called active. This list was built around the results that the source calls inconclusive (neither active nor inactive); the mix of calls is not that of the screen. The call rests on the fitted dose curve; in most records, active means well fitted inhibition curve with a large enough effect; inconclusive means small, poorly fitted or top-dose-only effect; inactive means no such curve, though single readings can be large or run the other way. Potencies beside an inconclusive call are fits to weak or partial responses and may not hold up. On the % scale 0 is the no-effect control and ±100 the full control effect; potency means the concentration at half of the fitted maximal effect; tags describe the fitted curve by direction and shape.",
  "data": [
    {"experiment": "Cytotoxic Profiling in NIH 3T3 Cell Line of Diverse Libraries Using Quantitative High-Throughput Screening; further: nearly all actives have a fitted effect of over 55% in size", "conditions": "NIH 3T3 viability, CellTiter-Glo ATP luminescence, 48-72 h; activity change, negative = cytotoxicity: at 96.7 µM (top of the series) unless noted; series mostly up to 96.7 µM", "outline": "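First NIH 3T3 cells are plated at 400 cells/well; next compound is pinned in; then plates incubate 48 or 72 hr at 37 °C; finally CellTiter-Glo is added and luminescence read after 10 min.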", "values": [
      {"smiles": "Cc1ccc(F)cc1-c1ccc(COc2ccc3c(cnn3CCC(=O)O)c2)cc1", "Potency": "inconclusive: 100 µM [inhibitor, single point]"},
      {"smiles": "COc1cccc(-c2ccc(C(=O)N3CCC(N[S+](=O)([O-])c4cccs4)CC3)cc2)c1", "Potency": "active: 15.8 µM"},
      {"smiles": "COCCN1CCCCCC(O)c2cc(C(=O)N3CCN(c4ccccc4OC)CC3)ccc21", "note": "(centres undefined)", "Potency": "inconclusive: 50.1 µM [inhibitor, partial curve, poor fit]"},
      {"smiles": "N#Cc1cccc(-c2cn3c(n2)N(C(=O)c2ccccn2)CCC3)c1", "activity change, negative = cytotoxicity": "inactive: -9.46%"},
      {"smiles": "O=C(NC1CCCCC1)c1ccc2nnc(-c3cc(C(F)(F)F)cc(C(F)(F)F)c3)n2c1", "Potency": "active: 31.6 µM"},
      {"smiles": "O=c1cc(N2CCOCC2)oc2c(N3CCN(c4ccccn4)CC3)nccc12", "Potency": "inconclusive: 7.94 µM [inhibitor, full curve, poor fit]"},
      {"smiles": "Cc1ccc(-n2cccc2CC(=O)NC(C)c2ccccn2)cc1", "note": "(centres undefined)", "activity change, negative = cytotoxicity": "inactive: -8.51%"},
      {"smiles": "CN(C)c1nccnc1OC1CCN(C(=O)c2ccncc2)C1", "note": "(centres undefined)", "outcome": "inactive"},
      {"smiles": "O=C(OCc1ccccc1)N1CCOCC12CCN(Cc1ccc3[nH]ccc3c1)CC2", "Potency": "inconclusive: 56.2 µM [inhibitor, partial curve, poor fit]"},
      {"smiles": "CCN(CCOc1ccc(OC)cc1)C(=O)c1cc(S(N)(=O)=O)ccc1C", "Potency": "inconclusive: 89.1 µM [inhibitor, single point]"},
      {"smiles": "O=C1NCc2ccccc2CC12CCCN2Cc1cc(F)ccc1F", "note": "(centres undefined)", "Potency": "inconclusive: 28.2 µM [inhibitor, partial curve]"},
      {"smiles": "Cc1c(-c2cn(C)c(=O)n3cc(COc4ccccc4)nc23)cnn1C", "Potency": "inconclusive: 44.7 µM [inhibitor, partial curve]"},
      {"smiles": "COCC1CN(C2CCC2)CC12CCN(C(=O)C1(c3ccccc3)CC1)CC2", "note": "(centres undefined)", "Potency": "inconclusive: 50.1 µM [inhibitor, partial curve, poor fit]"},
      {"smiles": "COc1ccc(CC(=O)N2CCCC(C(=O)N3CCC(c4nc5ncccc5[nH]4)CC3)C2)cc1", "note": "(centres undefined)", "activity change, negative = cytotoxicity": "inactive: -19%"},
      {"smiles": "COc1ccc(-c2cc(N3CCC(NC(=O)c4cccc(F)c4)C3)n[nH]2)cc1", "note": "(centres undefined)", "Potency": "inconclusive: 70.8 µM [inhibitor, single point]"},
      {"smiles": "COc1ccc(C(=O)N[C@H]2CO[C@H]3[C@@H]2OC[C@@H]3n2cc(CN(C)Cc3ccccc3)nn2)cc1", "activity change, negative = cytotoxicity": "inactive: -37.4%"},
      {"smiles": "Cc1cccc(C)c1-c1nnc2ccc(C(=O)N3CCOCC3)cn12", "activity change, negative = cytotoxicity": "inactive: -12.1%"},
      {"smiles": "Cc1ccc(N2CCN(C(=O)c3cc4n(n3)CC(c3ccc(Cl)cc3)OC4)CC2)cc1", "note": "(centres undefined)", "Potency": "inconclusive: 70.8 µM [inhibitor, partial curve, poor fit]"},
      {"smiles": "Cc1ccsc1CN1CCOc2ccc(C(=O)NCc3ccccc3F)cc2C1", "Potency": "inconclusive: 44.7 µM [inhibitor, partial curve, poor fit]"},
      {"smiles": "O=C(c1ccccn1)N1CCCC2(CC(c3cccnc3)=NO2)C1", "note": "(centres undefined)", "outcome": "inactive"},
      {"smiles": "Cn1ccnc1C(=O)N1CCC(C(=O)N2CCCCCCNC(=O)CC2)CC1", "activity change, negative = cytotoxicity": "inactive: 0.661%"},
      {"smiles": "COc1ccc(-c2n[nH]c3c2CC(=O)N(CCOc2ccccc2)C3)cc1F", "Potency": "inconclusive: 56.2 µM [inhibitor, partial curve, poor fit]"},
      {"smiles": "O=C(N[C@H]1CCN2C(=O)c3cc(-c4cccs4)ccc3NC(=O)[C@H]12)C1CCCC1", "Potency": "inconclusive: 100 µM [inhibitor, partial curve, poor fit]"},
      {"smiles": "COCC1CN(C(C)=O)CC12CCN(S(=O)(=O)c1cc(C)ccc1C)CC2", "note": "(centres undefined)", "Potency": "inconclusive: 35.5 µM [inhibitor, partial curve]"},
      {"smiles": "Cc1ccc(-c2ccc(CCC(=O)N[C@@H]3CCOC[C@H]3OCC(=O)O)o2)cc1", "activity change, negative = cytotoxicity": "inactive: -0.693%"},
      {"smiles": "O=C(NC1CC1)C1CCCN1Cc1ccc(-c2cncnc2)cc1", "note": "(centres undefined)", "activity change, negative = cytotoxicity": "inactive: -0.379%"},
      {"smiles": "Cn1ccc2c(C(=O)NCC3CCC(=O)N3)nc(-c3ccccc3O)cc21", "note": "(centres undefined)", "Potency": "active: 39.8 µM"},
      {"smiles": "O=C(NCc1cccc(F)c1)c1nc2c(o1)CCN(CC1CCCC1)CC2", "Potency": "inconclusive: 89.1 µM [inhibitor, partial curve, poor fit]"},
      {"smiles": "Cc1ccc(NC2CCCN(C(=O)Cc3c[nH]c(=O)n(C)c3=O)C2)cc1C", "note": "(centres undefined)", "activity change, negative = cytotoxicity": "inactive: -13.6%"},
      {"smiles": "Cc1cc(C2CC(C(=O)NCc3ccco3)CN(C(=O)c3ccccc3)C2)ccc1F", "note": "(centres undefined)", "Potency": "inconclusive: 50.1 µM [inhibitor, partial curve, poor fit]"},
      {"smiles": "Cc1ccc(S(=O)(=O)N2CCCC(CNC(=O)c3cccs3)C2)cc1", "note": "(centres undefined)", "Potency": "inconclusive: 28.2 µM [inhibitor, full curve]"},
      {"smiles": "Cc1nn(-c2ccccc2)c2c1C(C(C)C)N(C1CN(C(=O)Nc3ccc(Cl)cc3)C1)C2=O", "note": "(centres undefined)", "activity change, negative = cytotoxicity": "inactive: -26%"},
      {"smiles": "O=C(Cc1ccccc1)N1CCCC2(CC(c3cccnc3)=NO2)C1", "note": "(centres undefined)", "activity change, negative = cytotoxicity": "inactive: -9.21%"},
      {"smiles": "O=C1Cc2c(-c3cccc(C(F)(F)F)c3)n[nH]c2CN1CCc1ccncc1", "Potency": "inconclusive: 39.8 µM [inhibitor, full curve]"},
      {"smiles": "O=C(C1CC1)N1CCC2(CN[S+](=O)([O-])c3cnccc3O2)C1", "note": "(centres undefined)", "outcome": "inactive"},
      {"smiles": "O=[S+]1([O-])NC2(CCN(Cc3ccc(OC(F)(F)F)cc3)C2)CNc2ccccc21", "note": "(centres undefined)", "Potency": "inconclusive: 35.5 µM [inhibitor, partial curve, poor fit]"},
      {"smiles": "COC1CCN(C(=O)c2cnc3c(c2)N(C(=O)Cc2cn(C)c4ccccc24)CCC3)CC1", "Potency": "inconclusive: 28.2 µM [inhibitor, full curve]"},
      {"smiles": "O=C1CN(Cc2ccc(-c3ccsc3)cc2)CCN1c1cc(Cl)ncn1", "Potency": "inconclusive: 44.7 µM [inhibitor, partial curve, poor fit]"},
      {"smiles": "Cc1noc(C)c1-c1cc2c(c(-c3cnn(C)c3)c1)C(=O)N(C)C2", "Potency": "inconclusive: 12.6 µM [inhibitor, full curve]"},
      {"smiles": "COc1ccc(-c2cc(C(=O)Nc3ccc(F)cc3)c3cnn(C)c3n2)cc1", "activity change, negative = cytotoxicity": "inactive: -20.2%"},
      {"smiles": "O=C1NC(=NC2CCCCC2)C2(CCCN(CC3CC3)C2)N1c1cccnc1", "note": "(centres undefined)", "Potency": "inconclusive: 5.62 µM [inhibitor, full curve, poor fit]"},
      {"smiles": "COc1nccnc1NC1CCN(C(=O)NC2CCCCC2)CC1", "activity change, negative = cytotoxicity": "inactive: -0.0147%"},
      {"smiles": "O=C1CC(c2nc(-c3ccc4nc[nH]c4c3)no2)CN1Cc1cccnc1", "note": "(centres undefined)", "activity change, negative = cytotoxicity": "inactive: -13.1%"},
      {"smiles": "Cc1ccc(C)c2c(C)c(C(=O)N3CCCC(O)(CN4CCCC4)C3)[nH]c12", "note": "(centres undefined)", "Potency": "inconclusive: 89.1 µM [inhibitor, partial curve, poor fit]"}
    ]}
  ]
}
